The campaign covered roughly 310,000 compounds. About 14,000 (4.5%) showed an effect of 50% or more. The effect is printed as a negative number. This is one part of the list.
What follows are molecules tested against human ether-à-go-go-related gene (hERG) potassium channel (human, UniProt Q12809) (assay: primary screen, population patch clamp on CHO cells stably expressing hERG).
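Also: peak tail current of the secondary pulse compared with the same well before compound.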

Sequence of human ether-à-go-go-related gene (hERG) potassium channel (Q12809 whole entry, looked up): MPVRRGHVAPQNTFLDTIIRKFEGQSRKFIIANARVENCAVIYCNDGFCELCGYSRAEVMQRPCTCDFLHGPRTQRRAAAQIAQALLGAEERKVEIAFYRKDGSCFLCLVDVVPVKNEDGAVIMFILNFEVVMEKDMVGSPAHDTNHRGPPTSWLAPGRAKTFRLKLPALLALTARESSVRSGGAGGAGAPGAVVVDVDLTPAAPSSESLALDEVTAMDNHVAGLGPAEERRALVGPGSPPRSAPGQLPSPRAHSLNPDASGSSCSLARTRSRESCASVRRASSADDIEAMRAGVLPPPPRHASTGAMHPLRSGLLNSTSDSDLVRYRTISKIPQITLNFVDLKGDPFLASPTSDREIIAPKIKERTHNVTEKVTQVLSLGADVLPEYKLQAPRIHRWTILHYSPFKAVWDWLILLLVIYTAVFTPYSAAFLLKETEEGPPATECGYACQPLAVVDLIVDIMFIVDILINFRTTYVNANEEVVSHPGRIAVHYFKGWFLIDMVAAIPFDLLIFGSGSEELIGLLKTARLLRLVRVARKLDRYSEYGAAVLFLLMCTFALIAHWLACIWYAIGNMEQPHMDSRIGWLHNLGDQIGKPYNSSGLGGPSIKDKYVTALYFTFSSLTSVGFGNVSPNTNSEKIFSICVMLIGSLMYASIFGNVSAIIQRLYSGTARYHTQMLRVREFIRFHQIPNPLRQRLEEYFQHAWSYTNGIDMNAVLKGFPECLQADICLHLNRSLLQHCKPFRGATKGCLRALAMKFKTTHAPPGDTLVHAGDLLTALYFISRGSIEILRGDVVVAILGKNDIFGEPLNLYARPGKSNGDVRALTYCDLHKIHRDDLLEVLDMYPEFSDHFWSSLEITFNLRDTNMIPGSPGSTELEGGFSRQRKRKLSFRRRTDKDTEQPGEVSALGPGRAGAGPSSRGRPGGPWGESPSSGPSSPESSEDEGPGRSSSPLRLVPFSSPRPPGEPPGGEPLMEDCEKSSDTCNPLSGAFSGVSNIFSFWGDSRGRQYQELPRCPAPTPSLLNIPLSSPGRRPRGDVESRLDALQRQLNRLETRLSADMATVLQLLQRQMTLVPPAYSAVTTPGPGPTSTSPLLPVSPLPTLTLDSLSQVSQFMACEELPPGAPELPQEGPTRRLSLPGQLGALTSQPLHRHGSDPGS

Row | Structure (SMILES) | hERG current change (%, negative = inhibition) at 10uM [%]
1 | CCCN(CCC)S(=O)(=O)c1ccc(Cl)c([N+](=O)[O-])c1 | -4.02
2 | COc1ccc(C(CNC(=O)c2ccc(N3CCCC3=O)cc2)N2CCCC2)cc1 (stereo not shown) | -2.38
3 | COc1ccc(CCNS(=O)(=O)c2cc(C(=O)O)c(Cl)cc2Cl)cc1 | 10.5
4 | CC1CCCCN1CC(O)COCc1ccccc1.Cl (stereo not shown) | 5.66
5 | O=C(O/N=C/c1ccc2c(c1)OCO2)c1ccccc1Cl | 1.16
6 | CCCNC(=O)c1ccc(COc2cccc3ccccc23)o1 | -7.19
7 | COc1ccccc1CN1CC(C(=O)NCCn2nc(C)cc2C)CCC1=O (stereo not shown) | 8.76
8 | Fc1ccccc1N=C1Nc2cccc3cccc1c23 | -1.31
9 | CCOC(=O)Cc1csc(NC(=O)Cc2ccccc2)n1 | 1.37
10 | COc1ccc(C(=O)N/N=C/c2c(C)[nH]c(=O)[nH]c2=O)cc1 | 7.24
11 | O=C(Nc1nc(-c2ccco2)c(-c2ccco2)s1)c1ccco1 | -4.81
12 | CC(=O)Nc1ccc(S(=O)(=O)N=S(C)(C)=O)cc1 | 13.6
13 | COc1ccc(OC)c2c1C(=O)c1ccccc1C2=O | -5.81
14 | COc1ccc(-c2noc(CSc3nc(N)c(-c4ccccc4)c(=O)[nH]3)n2)cc1 | -2
15 | CCC(C)/C(C)=N/NC(=O)CSc1nc2ccccc2[nH]1 (stereo not shown) | 2.26
16 | Cc1ccc(C(=O)N(Cc2nc(-c3ccc(C)cc3)no2)C(C)C)cc1 | -5.71
17 | CC(C)(C)C1=CC(=O)C(N2CCOCC2)=CC1=O | -0.993
18 | CCc1ccc(OCC(=O)N/N=C/c2cc([N+](=O)[O-])ccc2N2CCCCCC2)cc1 | -11
19 | COc1ccc2cc(C(c3nnnn3CCc3ccccc3)N3CCC(O)CC3)c(=O)[nH]c2c1 (stereo not shown) | -8.63
20 | CCOC(=O)CN1C(=O)S/C(=C/c2ccc(OC)c([N+](=O)[O-])c2)C1=O | 0.523
21 | COc1cccc(CN2CCNC(=O)C2CC(=O)N2CCCCO2)c1OC (stereo not shown) | -3.91
22 | COc1ccc(/C=C2/SC(=S)N(CCCC(=O)Nc3ccccc3C(=O)O)C2=O)cc1 | -36.9

Row | Structure (SMILES) | hERG current change (%, negative = inhibition) at 10uM [%]
23 | COc1ccc(S(=O)(=O)NN(C)C)cc1N(C)S(=O)(=O)c1ccc(Cl)cc1 | -8.45
24 | CCOc1ccc(C(=O)NC(C(=O)NCC2CCCO2)C(C)C)cc1 (stereo not shown) | 1.31
25 | COc1cc(-c2[nH]ncc2CN(C)Cc2cc(C)[nH]n2)cc(OC)c1OC | -3.37
26 | O=C(C1CCC(Cn2c(=O)[nH]c3ccccc3c2=O)CC1)N1CCN(c2ccccc2)CC1 (stereo not shown) | 6.47
27 | COc1ccc(C(C)=O)cc1COc1ccc([N+](=O)[O-])c(C)c1 | -6.4
28 | O=C(COC(=O)/C=C/c1ccc(OC(F)F)cc1)Nc1cccc(S(=O)(=O)N2CCCC2)c1 | -20.1
29 | CN(CC(=O)Nc1cccc(F)c1)C(=O)C1CC(=O)N(Cc2ccco2)C1 (stereo not shown) | -8
30 | CC(C)(OC(=O)c1ccc(C(F)(F)F)cc1)c1cc2ccccc2c(=O)o1 | 14.6
31 | COc1cccc(C(C(=O)NC(C)(C)C)N(Cc2ccc(F)cc2)C(=O)CCC(=O)Nc2cc(C)on2)c1OC (stereo not shown) | 5.43
32 | C=C(C(=O)Oc1ccccc1C(C)(C)C)c1ccccc1 | 3.75
33 | CCOc1ccc(-c2nnc(SCC(=O)Nc3ccc4c(c3)c3ccccc3n4CC)n2N)cc1 | 27.9
34 | N#Cc1ccc(C(=O)NC2=NCCS2)cc1 | 23.4
35 | COc1ccccc1NC(=O)c1ccc(NC(=O)Cc2n[nH]c(=O)c3ccccc23)cc1 | -26.7
36 | CCCS(=O)(=O)NCc1cn2cccc(C)c2n1 | 7.62
37 | COc1ccc(C(=O)NCC(C)NC(=O)c2ccc(OC)c(OC)c2)cc1OC (stereo not shown) | 13.8
38 | O=C1CSC(=S)N1/N=C/c1ccc2c(c1)OCCO2 | 23.9
39 | O=C(C(Cc1ccccc1)N1C(=O)c2ccccc2C1=O)N1CCc2ccccc21 (stereo not shown) | 11.1
40 | C=CCN(CC=C)C(=S)NC(=O)c1ccc(C)c(Br)c1 | -12.6
41 | O=C(Nc1ccc(S(=O)(=O)N2CCCCCC2)cc1)C1CCCO1 (stereo not shown) | -36.7
42 | COc1cccc(-n2cnc3cccc(N)c32)c1 | 8.67
43 | Fc1ccc(C(c2nnnn2C2CCCC2)N2CCc3ccccc32)cc1 (stereo not shown) | -5.67
